Measurements published in PubChem BioAssay AID624417 (National Center for Advancing Translational Sciences (NCATS), 2012).
Out of some 410,000 compounds screened, about 6,400 (1.6%) were called active. The inconclusive results got no clear call from the source; some entries with a clear call stand among them for comparison. Calls come from the whole dose curve; as a rule, active = well fitted inhibition curve with a large enough effect; inconclusive = small, poorly fitted or top-dose-only effect; inactive = no such curve, though single readings can be large or run the other way. Potencies of inconclusive entries are left out as doubtful fits.

Each compound was assayed against Glucagon-like peptide 1 receptor (Homo sapiens) (UniProt P43220) (assay: qHTS of GLP-1 Receptor Inverse Agonists (Inhibition Mode)). Conditions: HEK293 GLP-1R CRE-luciferase, luminescence, 24 h, GLP-1R form is constitutively active; activity change, negative = inhibition: at 38.3 µM (top of the series) unless noted.
Summary of the method: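 Seeding at 200 cells/uL, 12 h culture, 24 hr compound treatment, then luciferase reagent and a luminescence read; cells are HEK293 stably expressing a constitutively active GLP-1R plus cAMP-responsive luciferase.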
% is set by controls: 0 for no effect and ±100 for the full control effect; potency is the fitted concentration of half-maximal effect; tags give direction and shape of the fitted curve.
Note: nearly all actives have a fitted effect of over 55% in size.

Sequence of UniProt P43220 (P43220 whole entry, looked up): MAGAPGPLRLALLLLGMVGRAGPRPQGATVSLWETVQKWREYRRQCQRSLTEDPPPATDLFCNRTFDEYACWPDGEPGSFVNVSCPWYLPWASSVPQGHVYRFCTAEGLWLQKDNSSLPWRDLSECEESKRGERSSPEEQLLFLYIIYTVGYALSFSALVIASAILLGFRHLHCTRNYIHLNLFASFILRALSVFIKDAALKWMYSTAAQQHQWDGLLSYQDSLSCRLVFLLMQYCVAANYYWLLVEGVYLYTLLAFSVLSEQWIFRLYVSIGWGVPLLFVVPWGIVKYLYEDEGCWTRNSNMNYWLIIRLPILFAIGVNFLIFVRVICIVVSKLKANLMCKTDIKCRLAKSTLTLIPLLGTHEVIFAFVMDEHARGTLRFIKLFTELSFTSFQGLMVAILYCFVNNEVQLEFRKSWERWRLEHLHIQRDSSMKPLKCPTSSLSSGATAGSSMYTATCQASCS

With `O=C1CC(c2cccc(Cl)c2)c2cc3c(cc2N1)CCC3` (stereo unspecified) as the compound, how does the “activity change, negative = inhibition” value read?
Its value is inactive: 0%.

With `CCOC(=O)c1c(NC(=O)CSc2nnc(CNc3ccc(OC)cc3)n2C)sc(C)c1C` as the compound, how does the Potency read?
The Potency was inconclusive [inhibitor, partial curve, poor fit].

`Cc1nc(SCC(=O)N(C)C2CCS(=O)(=O)C2)c2ccccc2n1` (stereo unspecified) was tested. Which “activity change, negative = inhibition” value did it give?
The value was inactive: -23.1%.

Which Potency does the source give for `NC(=O)CC(NC(=S)NCc1ccccc1)C(=O)O` (stereo unspecified) here?
Its Potency is inconclusive [inhibitor, single point].

`COc1ccc(/C=N/NC(=O)c2c(Br)cnn2C)c2ccccc12` was tested. Which Potency did it give?
The Potency was inconclusive [inhibitor, partial curve, poor fit].

How did the Potency turn out when `Cc1cc(C(C)(C)C)cc(C)c1COC(=O)CN1C(=O)NC2(CCCC2)C1=O` was run?
The Potency was inconclusive [inhibitor, single point].

Which “activity change, negative = inhibition” value does the source give for `O=[N+]([O-])c1ccc(N/N=C/c2cccc(O)c2O)cc1` here?
Its value is inactive: -29%.

With `CC(C)c1ccccc1NC(=S)NC(C)c1ccccc1` (stereo unspecified) as the compound, how does the Potency read?
The Potency was inconclusive [inhibitor, partial curve, poor fit].

With `Oc1ccc(/C=N/Nc2nc(-c3ccccc3F)nc3ccccc23)c(O)c1` as the compound, how does the Potency read?
The Potency was inconclusive [inhibitor, partial curve, poor fit].

With `Cc1ccc(CNC(=O)C2CCCN2S(=O)(=O)c2ccc(Cl)cc2)cc1` (stereo unspecified) as the compound, how does the Potency read?
The Potency was inconclusive [inhibitor, single point].

With `COc1ccc(NC(=O)CCSc2ccc(F)cc2)cc1` as the compound, how does the Potency read?
The Potency was inconclusive [inhibitor, single point].

How did the Potency turn out when `CCOC(=O)N1CCN(C(=O)/C(=C\c2ccc(SC)cc2)NC(=O)c2ccccc2)CC1` was run?
Its Potency is inconclusive [inhibitor, partial curve, poor fit].

`Brc1cc(Br)cc(CN2CCSCC2)c1` was tested. Which Potency did it give?
Its Potency is inconclusive [inhibitor, partial curve].

`COc1ccc(C(C)=O)cc1Cn1c(C)c(C(=O)NCc2cccc(C(F)(F)F)c2)sc1=O` was tested. Which Potency did it give?
The Potency was inconclusive [inhibitor, partial curve].

How did the Potency turn out when `CC(NC(=O)CN(C)S(=O)(=O)c1ccc(F)cc1)C1CC2CCC1C2` (stereo unspecified) was run?
The Potency was inconclusive [inhibitor, single point].

Which Potency does the source give for `COc1ccc(C=C2OC(=O)C(C(C)=O)=C2O)cc1` here?
Its Potency is inconclusive [inhibitor, partial curve, poor fit].

`COc1cccc(N(C(=O)Cn2nnc(-c3cccs3)n2)C(C(=O)NC(C)C)c2ccc(C)o2)c1` (stereo unspecified) was tested. Which Potency did it give?
The Potency was inconclusive [inhibitor, partial curve].

`CN1CCN(c2ccc(S(=O)(=O)N3CCCCC3)cc2NC(=O)Cc2c(F)cccc2Cl)CC1` was tested. Which Potency did it give?
The Potency was inconclusive [inhibitor, single point].

`Cc1nc2c3ccccc3nc(NNC(=O)CCC(=O)N3CCN(c4cccc(C(F)(F)F)c4)CC3)n2n1` was tested. Which Potency did it give?
Its Potency is inconclusive [inhibitor, single point].

With `CCn1c(SC(C)C(=O)NC2CCCc3ccccc32)nnc1-c1cccs1` (stereo unspecified) as the compound, how does the Potency read?
The Potency was inconclusive [inhibitor, single point].

`Cc1ccc([N+](=O)[O-])cc1NC(=O)CN(C1CCCCC1)S(=O)(=O)c1ccc(Cl)cc1` was tested. Which Potency did it give?
The Potency was inconclusive [inhibitor, partial curve, poor fit].

Which Potency does the source give for `CN(Cc1ccc(OC(F)F)cc1)C(=O)c1ccc(S(=O)(=O)N(C)c2ccccc2)cc1` here?
Its Potency is inconclusive [inhibitor, single point].

`Cc1oc2cc([N+](=O)[O-])c(O)c([N+](=O)[O-])c2c1C(=O)c1ccc(Br)cc1` was tested. Which Potency did it give?
The Potency was inconclusive [inhibitor, single point].

With `Cc1ccc(C)c(NC(=S)NCc2cccs2)c1` as the compound, how does the Potency read?
The Potency was inconclusive [inhibitor, single point].

With `Cc1cccc(C(=O)Nc2sc(-c3ccccc3)cc2C(=O)O)c1` as the compound, how does the Potency read?
The Potency was inconclusive [inhibitor, single point].

With `CCOC(=O)C1(CCOc2ccccc2)CCN(Cc2ccncc2)CC1` as the compound, how does the “activity change, negative = inhibition” value read?
Its value is inactive: -41.3%.

Which Potency does the source give for `CCCOc1ccc(-c2c(C(=O)N/N=C/c3cccs3)nnn2-c2nonc2N)cc1` here?
Its Potency is inconclusive [inhibitor, partial curve, poor fit].

For `CCCCn1c(N)c(N(CC)C(=O)c2cc(Br)ccc2Cl)c(=O)[nH]c1=O`, which Potency is on record?
Its Potency is inconclusive [inhibitor, partial curve].

Which Potency does the source give for `CCOc1ccc(-n2ccnc2SCC(=O)Nc2nnc(C)s2)cc1` here?
The Potency was inconclusive [inhibitor, single point].

With `CCCCCCc1cc2cc(S(=O)(=O)c3ccc(C)cc3)c(=O)oc2cc1O` as the compound, how does the Potency read?
Its Potency is inconclusive [inhibitor, partial curve, poor fit].

For `CCOC(=O)C1=CCN(S(=O)(=O)c2ccccc2Br)C1c1ccc(C)cc1` (stereo unspecified), which Potency is on record?
The Potency was inconclusive [inhibitor, single point].

How did the Potency turn out when `FC(F)Sc1nc(-c2ccccc2)c(-c2ccccc2)n1C(F)F` was run?
The Potency was inconclusive [inhibitor, single point].

Which Potency does the source give for `CCOC(=O)N1CCN(C(=S)Nc2cc(S(=O)(=O)N3CCOCC3)ccc2Cl)CC1` here?
Its Potency is inconclusive [inhibitor, partial curve, poor fit].

`O=C(NCCCN1CCN(c2ccccc2F)CC1)c1cc2c(s1)-c1ccccc1OC2` was tested. Which Potency did it give?
Its Potency is inconclusive [inhibitor, single point].

For `N#CCN(C(=O)COC(=O)CCCNC(=O)c1ccc(Cl)cc1)c1ccccc1`, which “activity change, negative = inhibition” value is on record?
Its value is inactive: 5.64%.

`CCCCCCCC(=O)N/N=C(\C)c1ccc(O)cc1O` was tested. Which Potency did it give?
Its Potency is inconclusive [inhibitor, single point].

How did the Potency turn out when `Cc1ccc(C(=O)N(CC(=O)NC2CCCC2)c2ccccc2F)s1` was run?
The Potency was inconclusive [inhibitor, partial curve, poor fit].

Which “activity change, negative = inhibition” value does the source give for `CN(C)/C=C/C(=O)c1ccc(Cl)cc1` here?
The value was inactive: 1.92%.

`Cc1cccc(CNC(=O)c2ccc(NC(=O)N3CCSc4ccccc43)cc2)c1` was tested. Which Potency did it give?
Its Potency is inconclusive [inhibitor, partial curve, poor fit].

`CCC(=O)Nc1c(-c2ccc(OC)cc2)c(=O)c2ccccc2n1C` was tested. Which “activity change, negative = inhibition” value did it give?
Its value is inactive: 1.05%.

How did the Potency turn out when `Fc1ccc(-[n+]2nc(Nc3ccccc3)sc2-c2c3ccccc3cc3ccccc23)cc1` was run?
The Potency was active: 11.2 µM.

For `Cc1ccccc1NC(=O)N1CCNC(=O)C1CC(=O)Nc1cc(Cl)ccc1Cl` (stereo unspecified), which Potency is on record?
Its Potency is inconclusive [inhibitor, single point].

`CCN(c1ccccc1)S(=O)(=O)c1ccc(C(=O)Nc2cccc(C)n2)cc1` was tested. Which Potency did it give?
The Potency was inconclusive [inhibitor, single point].

With `O=S(=O)(c1ccc2[nH]ccc2c1)N1CCCCCC1` as the compound, how does the Potency read?
The Potency was inconclusive [inhibitor, single point].

For `COc1ccccc1OCc1nc(C#N)c(N2CC(C)CC(C)C2)o1` (stereo unspecified), which Potency is on record?
Its Potency is inconclusive [inhibitor, partial curve, poor fit].

For `Cc1ccc(NS(=O)(=O)c2cc(C(=O)NCCCN(C)C)ccc2Cl)cc1Cl`, which Potency is on record?
Its Potency is inconclusive [inhibitor, single point].

How did the Potency turn out when `CCC1CCCCN1S(=O)(=O)c1ccc(C(=O)Nc2nnc(C3CC3)o2)cc1` (stereo unspecified) was run?
Its Potency is inconclusive [inhibitor, partial curve, poor fit].

With `O=S(=O)(Nc1ccn(-c2ccccc2)n1)c1ccc(Br)cc1` as the compound, how does the “activity change, negative = inhibition” value read?
The value was inactive: 1.12%.

Which Potency does the source give for `CC(C)(C)N(Cc1ccccc1)C(=O)c1ccc2c(c1)OCCO2` here?
The Potency was inconclusive [inhibitor, partial curve, poor fit].

For `CCOc1ccc(CN(C)C(=O)CCc2ccc(S(=O)(=O)N3CCCCCC3)cc2)cc1`, which Potency is on record?
The Potency was inconclusive [inhibitor, partial curve, poor fit].

With `O=C(N/N=C/c1cccnc1)c1cc2c(ccc3ccccc32)o1` as the compound, how does the Potency read?
The Potency was inconclusive [inhibitor, single point].

`COc1ccc(C)cc1-n1nnc(C(=O)Nc2cccc(SC)c2)c1C` was tested. Which Potency did it give?
Its Potency is inconclusive [inhibitor, partial curve, poor fit].

How did the Potency turn out when `CSc1nnc(Cc2sc(-c3ccccc3)nc2-c2ccccc2)o1` was run?
Its Potency is inconclusive [inhibitor, single point].

How did the Potency turn out when `CC(C)C1C(=O)NC(=S)N1S(=O)(=O)c1ccc(C(C)(C)C)cc1` (stereo unspecified) was run?
Its Potency is inconclusive [inhibitor, full curve, poor fit].

`CC(OC(=O)c1ccc(Cl)cc1)C(=O)NCC1CCCCC1` (stereo unspecified) was tested. Which Potency did it give?
The Potency was inconclusive [inhibitor, single point].

Which Potency does the source give for `CCOC(=O)c1cc(-c2ccccc2)n(-c2cccc(C(=O)Nc3cccc(C(C)=O)c3)c2)c1C` here?
Its Potency is active: 5.62 µM.

With `O=C(c1cccnc1)N1N=C(c2cccs2)CC1c1ccc(F)cc1` (stereo unspecified) as the compound, how does the Potency read?
Its Potency is inconclusive [inhibitor, single point].

For `Nc1nonc1-n1nnc(C(=O)N/N=C/c2ccccc2F)c1CN1CCc2ccccc21`, which Potency is on record?
Its Potency is inconclusive [inhibitor, single point].

Which Potency does the source give for `N/C(Cc1ccc(Cl)cc1)=N\OC(=O)Cc1ccc([N+](=O)[O-])cc1` here?
The Potency was inconclusive [inhibitor, single point].

With `CCC[C@H]1CCCC/C=C\CCCC(=O)OCCN1C(=O)OC(C)(C)C` as the compound, how does the Potency read?
The Potency was inconclusive [inhibitor, partial curve, poor fit].

With `CN(C)CC/C=C1/c2ccc(F)cc2Sc2ccc(Cl)cc21` as the compound, how does the Potency read?
Its Potency is inconclusive [inhibitor, partial curve, poor fit].
